Test results as given in PubChem BioAssay AID1671194 (National Center for Advancing Translational Sciences (NCATS), 2021).
The whole screen tested about 140,000 compounds, of which about 240 (0.17%) were called active. Inconclusive results, whose numbers are uncertain, are shown with a selection of clear calls. The call rests on the fitted dose curve; in most records, active means well fitted inhibition curve with a large enough effect; inconclusive means small, poorly fitted or top-dose-only effect; inactive means no such curve, though single readings can be large or run the other way. Potencies beside an inconclusive call are fits to weak or partial responses and may not hold up.

Assay: Primary qHTS assay for inhibitors of alpha-synuclein gene (SNCA) expression; further: nearly all actives have a fitted effect of over 45% in size;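 on activity change, negative = inhibition: plate controls were DMSO cells for no effect and cell-free wells for full effect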
Conditions: HEK-293 SNCA-luciferase knock-in, luminescence, 24 h; activity change, negative = inhibition: at 57.2 µM (top of the series) unless noted
Potency means the concentration at half of the fitted maximal effect; tags describe the fitted curve by direction and shape.

Activity change, negative = inhibition, inactive:
Cc1ccc(Nc2ccnc(N3CCN(C(=O)C4CC4)CC3)n2)cc1 30.1% [at 87.6 µM], O=C(NCCN1CCOCC1)C1CCCCc2nnc(-c3ccccc3)n21 (configuration not stated) 9.78%, Cn1nccc1OCc1cn2c(=O)n(C)cc(-c3ccccc3F)c2n1 39% [at 87.6 µM], CC(C)c1noc(-c2cn(C3CCN(C(=O)Cc4ccc(F)cc4)C3)nn2)n1 (configuration not stated) 8.57%, CO[C@H]1C(=O)N(C2CCN(C(=O)C3CCCC3)CC2)[C@H]1c1ccncc1 1.26%, O=c1cc(-c2cccnc2)oc2c(NCC3CCOCC3)nccc12 -17.1% [at 87.6 µM], CCc1ccc(C(=O)N2CCc3[nH]nc(C(=O)NC4CCN(C)CC4)c3C2)cc1 -6.64%

Potency, inconclusive:
CC1(CCCCN2CCOCC2)COc2ccc(C(=O)Nc3ccc4[nH]ccc4c3)cc2N1 (configuration not stated) 11.2 µM [inhibitor, partial curve, poor fit], CCOC(=O)c1ccc(Nc2nc3nonc3nc2Nc2cccc(C)c2C)cc1 12.6 µM [inhibitor, partial curve, poor fit], Cc1c(CN2CCCC(C(=O)Nc3cccc(-c4cc5ccccc5[nH]4)c3)C2)cnn1C (configuration not stated) 28.2 µM [inhibitor, partial curve, poor fit], CCOc1ccc(CCn2c3c(c(=O)[nH]c2=O)C(NC(=O)c2ccccc2)(C(F)(F)F)C(=O)N3)cc1OCC (configuration not stated) 0.178 µM [inhibitor, partial curve, poor fit], CN1CCN([C@@H]2[C@H](O)[C@H](CO)O[C@@H]2CN(Cc2ccc(Cl)cc2)Cc2cccc(Cl)c2)CC1 17.8 µM [inhibitor, partial curve, poor fit], CC(C)(C)c1ccc(S(=O)(=O)Nc2ccc(O)c(Sc3nc4ccccc4s3)c2)cc1 14.1 µM [inhibitor, single point], COc1ccc(-c2noc(-c3nnn4c3COC(c3ccc(F)cc3)C4)n2)cc1 (configuration not stated) 7.08 µM [inhibitor, single point], Cc1ccc(C)c(CN2C(=O)c3ccccc3S(=O)c3ccc(C(=O)N(C)Cc4ccccc4)cc32)c1 (configuration not stated) 28.2 µM [inhibitor, partial curve, poor fit], COc1cccc(NC(=O)[C@@H]2C[C@@H](c3ccc(F)cc3)N([S+](=O)([O-])c3cccnc3)C2)c1 5.62 µM [inhibitor, partial curve, poor fit], CS(=O)(=O)N1CCn2ncc(C(=O)N3CCOCC3)c2C1 2 µM [inhibitor, full curve, poor fit]
